We go through one compound from PubChem BioAssay AID651965 (National Center for Advancing Translational Sciences (NCATS), 2013).

In all, about 340,000 compounds went through this assay and about 6,400 (1.9%) were called active. Another 4% or so got no clear call; they are omitted. Calls follow the shape of the dose curve; as a rule, active = well fitted falling curve with a large enough effect; inconclusive = small, poorly fitted or top-dose-only effect; inactive = no such curve, though single readings can be large or run the other way. Some structures have more than one record in an assay (separate samples or runs), and their calls can disagree. For part of its entries the source gives two or more results. The other results are left out here. There may be further records. The values listed for one entry repeat one measurement in other runs, samples, wells, individuals or studies. What stands in brackets tells the records apart. The letters are not those of the source and start again with each entry.
Potency is read from the fitted curve at half-maximal effect.

Chain of UniProt P80244 (P80244 whole entry, looked up): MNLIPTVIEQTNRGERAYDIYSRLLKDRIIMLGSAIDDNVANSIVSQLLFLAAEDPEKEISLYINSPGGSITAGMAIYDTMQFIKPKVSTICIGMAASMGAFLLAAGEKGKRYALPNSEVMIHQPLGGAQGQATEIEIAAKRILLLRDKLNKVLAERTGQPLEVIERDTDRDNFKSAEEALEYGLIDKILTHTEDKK

In the assay the target is ATP-dependent Clp protease proteolytic subunit (Bacillus subtilis (strain 168)) (UniProt P80244). The assay is described as follows: qHTS Assay for Activators of ClpP. Also: the source files actives as falling curves though it sought activators and does not explain the sign; nearly all actives have a fitted effect of over 65% in size. As to conditions: purified B. subtilis ClpP, FRET peptide cleavage, 20 min; series mostly up to 57.5 µM. From the text:
The Clp protease proteolytic subunit (ClpP) is the core unit of the Clp complex belonging to the peptidase family S14 that hydrolyzes protein into small peptides in the presence of ATP and magnesium. It is ubiquitously expressed and is the major protease in bacteria. […] Unlike common antibiotics that simply interfere with the essential enzyme activity, ADEP binding activates the ClpP core in the absence of the regulatory Clp-ATPases leading to uncontrolled proteolysis and eventually cell death. […]
To identify activators of ClpP, a FRET based quenching reversal assay was developed using a purified B. subtilis ClpP and a decapeptide substrate (FRET-FV). […] FRET-FV cleaves upon activation of ClpP with ADEP treatement and reverses the quenching effect of the nitrotyrosine causing an increase in fluorescence emission signal at 430nm. […]
Two and a half microL/well of purified enzyme solution (final concentrations 10 microg/mL B. subtilis ClpP in 100 mM Tris/HCl pH8, 100 mM KCl, 0.05% low protease BSA, 2.5% glycerol, 0.01% Tween-20 buffer) was dispensed into 1536-well assay plates (Greiner, black solid, medium-binding plates) with Aurora Discovery BioRAPTR Flying Reagent Dispenser (FRD, Beckton-Dickenson). […] FRET signals at time 0 and after 20 min room temperature incubation were obtained using the PerkinElmer Envision plate reader with 320nm excitation and 430nm emission filters. […]
In general terms: qHTS replaces the single test concentration by a dilution series.
For the compound `Cc1ccc(-n2ncc3c(Nc4cccc(C(=O)O)c4)ncnc32)cc1`, the Potency result was “active: 3.55 µM [sample A] and inactive [sample B]”.
